Data published in the supplement of paper PMC4604168 (melanoma cell lines).
This is one part of the list. Single values are uncertain, as repeats are few or missing.

Experiments:
Experiment in all cases: cell count relative to DMSO control; melanoma cells; higher = more viable cells
Details in all cases: library dose: low library concentration; 72 h
WM115 = tested on: WM115
WM1716 = tested on: WM1716
WM1745 = tested on: WM1745
WM3526 = tested on: WM3526
WM3619 = tested on: WM3619
WM451Lu = tested on: WM451Lu
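Note: cell number obtained by counting DAPI-stained nuclei in high-throughput microscope images with image analysis software, screen run in 1,536-well plates.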

Compound	cell count (WM115)	cell count (WM1716)	cell count (WM1745)	cell count (WM3526)	cell count (WM3619)	cell count (WM451Lu)
C[As](C)SC[C@H](NC(=O)CC[C@H](N)C(=O)O)C(=O)NCC(=O)O [Darinaparsin] + COc1cc(N2CCC(N3CCN(C)CC3)CC2)ccc1Nc1ncc(Cl)c(Nc2ccccc2S(=O)(=O)C(C)C)n1 [NVP-TAE684] (first compound 0.4 µM, partner dose 0.08 µM)	88.2%	93.2%	78.7%	82.1%	58.3%	98.3%
N.N.[Cl][Pt][Cl] [cisplatin] + Clc1ccc(Nc2nnc(Cc3ccncc3)c3ccccc23)cc1 [vatalanib] (first compound 1.6 µM, partner dose 2 µM)	107%	109%	92.4%	102%	77.9%	90.9%
Cn1cc(C2=C(c3cn(C4CCN(Cc5ccccn5)CC4)c4ccccc34)C(=O)NC2=O)c2ccccc21 [Enzastaurin] + COc1ccc(COc2ccc(Cc3cnc(N)nc3N)cc2OC)cc1 [GW2580] (first compound 0.8 µM, partner dose 1 µM)	121%	104%	81.8%	107%	94.7%	119%
N.N.[Cl][Pt][Cl] [cisplatin] + OCCn1cc(-c2cnc3nnn(Cc4ccc5ncccc5c4)c3n2)cn1 [PF04217903] (first compound 1.6 µM, partner dose 1 µM)	94.1%	97.8%	86.8%	91.7%	91.8%	103%
Cn1cc(C2=C(c3cn(C4CCN(Cc5ccccn5)CC4)c4ccccc34)C(=O)NC2=O)c2ccccc21 [Enzastaurin] + O=C(O)[C@@H]1[O][Sb](=[O])([O][Sb]2(=[O])[O][C@H]([C@H](O)CO)[C@H](O)[C@H](C(=O)O)[O]2)[O][C@H]([C@H](O)CO)[C@@H]1O [stibogluconate] (first compound 0.8 µM, partner dose 2 µM)	109%	94.3%	92%	103%	112%	135%
N.N.[Cl][Pt][Cl] [cisplatin] + O=C(CCCCCCC(=O)Nc1ccccc1)NO [vorinostat] (first compound 1.6 µM, partner dose 0.08 µM)	92.4%	111%	81.5%	104%	104%	92.6%
C[As](C)SC[C@H](NC(=O)CC[C@H](N)C(=O)O)C(=O)NCC(=O)O [Darinaparsin] + C[C@]1(c2nc3c(C(N)=O)cccc3[nH]2)CCCN1 [Veliparib] (first compound 0.4 µM, partner dose 1.4 µM)	88.6%	106%	99.9%	91.2%	104%	93.7%
Cn1cc(C2=C(c3cn(C4CCN(Cc5ccccn5)CC4)c4ccccc34)C(=O)NC2=O)c2ccccc21 [Enzastaurin] + Oc1nc(-c2ccc(C(F)(F)F)cc2)nc2c1CSCC2 [XAV939] (first compound 0.8 µM, partner dose 2 µM)	97.6%	81.4%	88.9%	84.2%	96.9%	115%
Cn1cc(C2=C(c3cn(C4CCN(Cc5ccccn5)CC4)c4ccccc34)C(=O)NC2=O)c2ccccc21 [Enzastaurin] + N.N.[Cl][Pt][Cl] [cisplatin] (first compound 0.8 µM, partner dose 1.6 µM)	102%	92.3%	84.9%	108%	95.4%	92.7%
N.N.[Cl][Pt][Cl] [cisplatin] + Cc1cc([N+](=O)[O-])ccc1NS(=O)(=O)c1cc(Cl)ccc1Cl [FH535] (first compound 1.6 µM, partner dose 1 µM)	81.9%	100%	94.7%	99.9%	100%	87.5%
Cn1cc(C2=C(c3cn(C4CCN(Cc5ccccn5)CC4)c4ccccc34)C(=O)NC2=O)c2ccccc21 [Enzastaurin] + NC(=O)c1ccc(N(C(N)=O)c2c(F)cccc2F)nc1-c1ccc(F)cc1F [VX702] (first compound 0.8 µM, partner dose 0.4 µM)	108%	100%	89.4%	88.4%	104%	140%
C[C@]12O[C@H](C[C@]1(O)CO)n1c3ccccc3c3c4c(c5c6ccccc6n2c5c31)CNC4=O [Lestaurtinib] + Cn1nnc2c(C(N)=O)ncn2c1=O [temozolomide] (first compound 0.004 µM, partner dose 2 µM)	95%	100%	87.8%	88.1%	97.8%	102%
Cn1cc(C2=C(c3cn(C4CCN(Cc5ccccn5)CC4)c4ccccc34)C(=O)NC2=O)c2ccccc21 [Enzastaurin] + Oc1cc(-c2nc(-c3ccccc3)[nH]c2-c2ccncc2)ccc1Cl [L779450] (first compound 0.8 µM, partner dose 0.2 µM)	99.5%	125%	99.2%	85%	109%	117%
Cn1cc(C2=C(c3cn(C4CCN(Cc5ccccn5)CC4)c4ccccc34)C(=O)NC2=O)c2ccccc21 [Enzastaurin] + O=C1NC(=O)/C(=C/c2ccc(-c3ccc(F)cc3O)o2)S1 [AS252424] (first compound 0.8 µM, partner dose 1 µM)	107%	99.3%	96.8%	91.4%	116%	101%
C[As](C)SC[C@H](NC(=O)CC[C@H](N)C(=O)O)C(=O)NCC(=O)O [Darinaparsin] + COc1ccc(COc2ccc(Cc3cnc(N)nc3N)cc2OC)cc1 [GW2580] (first compound 0.4 µM, partner dose 1 µM)	93.1%	90.7%	82.6%	109%	104%	109%
Cn1cc(C2=C(c3cn(C4CCN(Cc5ccccn5)CC4)c4ccccc34)C(=O)NC2=O)c2ccccc21 [Enzastaurin] + CN(c1ncccc1CNc1nc(Nc2ccc3c(c2)CC(=O)N3)ncc1C(F)(F)F)S(C)(=O)=O [PF562271] (first compound 0.8 µM, partner dose 0.08 µM)	80.6%	89.7%	90%	119%	108%	77.7%
C[As](C)SC[C@H](NC(=O)CC[C@H](N)C(=O)O)C(=O)NCC(=O)O [Darinaparsin] + CC(C)(C)c1cnc(CSc2cnc(NC(=O)C3CCNCC3)s2)o1 [SNS-032] (first compound 0.4 µM, partner dose 0.01 µM)	86.7%	86.4%	82.4%	85.9%	90.4%	101%
Cn1cc(C2=C(c3cn(C4CCN(Cc5ccccn5)CC4)c4ccccc34)C(=O)NC2=O)c2ccccc21 [Enzastaurin] + C=CCn1c(=O)c2cnc(Nc3ccc(N4CCN(C)CC4)cc3)nc2n1-c1cccc(C(C)(C)O)n1 [MK1775] (first compound 0.8 µM, partner dose 0.02 µM)	93.7%	86.3%	49.5%	89.7%	48.1%	114%
Cn1cc(C2=C(c3cn(C4CCN(Cc5ccccn5)CC4)c4ccccc34)C(=O)NC2=O)c2ccccc21 [Enzastaurin] + c1cc(-c2cnn3cc(-c4ccc(OCCN5CCCCC5)cc4)cnc23)ccn1 [Dorsomorphin] (first compound 0.8 µM, partner dose 0.4 µM)	110%	88.9%	71.3%	130%	87%	134%
Cn1cc(C2=C(c3cn(C4CCN(Cc5ccccn5)CC4)c4ccccc34)C(=O)NC2=O)c2ccccc21 [Enzastaurin] + CS(=O)(=O)CCNCc1ccc(-c2ccc3ncnc(Nc4ccc(OCc5cccc(F)c5)c(Cl)c4)c3c2)o1 [lapatinib] (first compound 0.8 µM, partner dose 0.8 µM)	97.6%	92.5%	85.8%	93.5%	87.6%	98.7%
C[As](C)SC[C@H](NC(=O)CC[C@H](N)C(=O)O)C(=O)NCC(=O)O [Darinaparsin] + Cn1cncc1[C@@](N)(c1ccc(Cl)cc1)c1ccc2c(c1)c(-c1cccc(Cl)c1)cc(=O)n2C [tipifarnib] (first compound 0.4 µM, partner dose 0.01 µM)	88.2%	92.3%	97.2%	87.5%	90.5%	73.8%
N.N.[Cl][Pt][Cl] [cisplatin] + NCC(=O)Nc1ccc(-n2nc(C(F)(F)F)cc2-c2ccc3c(ccc4ccccc43)c2)cc1 [OSU03012] (first compound 1.6 µM, partner dose 1 µM)	102%	111%	98%	87.7%	109%	111%
C[C@]12O[C@H](C[C@]1(O)CO)n1c3ccccc3c3c4c(c5c6ccccc6n2c5c31)CNC4=O [Lestaurtinib] + Nc1nc(F)nc2c1ncn2[C@@H]1O[C@H](CO)[C@@H](O)[C@@H]1O [fludarabine] (first compound 0.004 µM, partner dose 0.2 µM)	92.6%	98.2%	89.1%	27.7%	90.3%	60.7%
